Laboratory results: patent US10603282B2 (Merck Sharp & Dohme Corp., priority 2015, dated 2020)

Test: Physical stability (crystallization) of amorphous doravirine on open storage
Settings: open container at 5° C./ambient RH, 30° C./65% RH, 40° C./75% RH, and 60° C./ambient RH

time to crystallization: ≤ 2 weeks
Compound: Cn1c(Cn2ccc(C(F)(F)F)c(Oc3cc(Cl)cc(C#N)c3)c2=O)n[nH]c1=O [Neat amorphous doravirine, 3-chloro-5-({1-[(4-methyl-5-oxo-4,5-dihydro-1H-1,2,4-triazol-3-yl)methyl]-2-oxo-4-(trifluoromethyl)-1,2-dihydropyridin-3-yl}oxy)benzonitrile]
